Measured values: the supplement of paper PMC11417369
This is one part of the list.

Test system: PF3D7_0420300 AP2 domain 1 (GST-tagged)
Assay: gcPBM binding intensity (ln(normalized median fluorescence intensity)); higher = stronger DNA binding
Summary of the method: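 Binding of GST-tagged P. falciparum DNA-binding domains, expressed in E. coli and used at about 25 μg on average, was carried out for 1 h in 1× PBS containing 1% milk, 0.2 mg/ml BSA, 0.5% salmon testes DNA and 0.03% Triton X-100. The target was an Agilent 4 × 180k array of primer-extended double-stranded 36-bp intergenic genomic probes plus negative controls, read with Alexa488 anti-GST antibody at 488 nm. Binding intensity is the highest Masliner-normalised natural-log median intensity across replicate spots of either probe orientation.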

| Sequence | gcPBM binding intensity (ln) |
| --- | --- |
| CATATAAAAAAATAGACACACATTTTATATAATACG [CACACA_site1896] | 9.58 |
| TCAAGTATTAAAATGGGTACATAAATATGTGTATAT [XGTACX_site5884] | 9.41 |
| CTTTTTAAATTAAAATGTACAGAAAAATATTATTAT [XGTACX_site8760] | 8.92 |
| TATTTTTCTTTTTTTTTTTTTTTTATATTATACGTG [XGTACX_negctrl_site363] | 9.1 |
| AACCATGTTAACAATGCATGCATCACTATATAAACG [TGCATGCA_site421] | 9.25 |
| ATACATATATATAGGTGTACATATAATATATATATA [XGTACX_site2228] | 9.35 |
| TTTAATTTTACATGAGAAACATATTACAATAAAATA [GTGCAC_negctrl_site606] | 8.97 |
| GAAATACCGGAAAGCAAACACACATTTTAAAACCAT [CACACA_site3861] | 9.68 |
| ATATTTTTTGGAAAGTGTACAATATTATATATTAAA [XGTACX_site2163] | 9.06 |
| TTTTTTTTTTTTAAATGTACTTATCAACTTTTATAT [XGTACX_site4641] | 9.19 |
| TTATTTTGTTTATTATGTACACAAAGACATAATAAT [XGTACX_site5648] | 9.03 |
| CACTTACATAATTATTGTACAGATATTATCAAATAA [XGTACX_site567] | 9.05 |
| ACTTATATTATAAATTGTACAAATATTATATTTGGT [XGTACX_site1424] | 9.29 |
| AATATATGTAAATGGACACACACATATATATATATA [CACACA_site9220] | 9.47 |
| AATAAAATAATCCAAGTGCATATGTAAAAATACATT [GTGCAC_site9576] | 9.36 |
| TACGTAAAAATAATACGTACATATATTTATAGAAAA [XGTACX_site4959] | 9.02 |
| ACGGACAATACGGAAACACACAAGTTATTTTATCAT [CACACA_site7310] | 9.49 |
| AAAAAAAAAAGACACACACACACACGCATATACATA [CACACA_site7289] | 10.2 |
| ACATAATATATATATTAACACACATCCTTTTATGTA [CACACA_site8317] | 9.58 |
| TGACTTTGTTGAATTTGTCCTCTTAACTCATAATAT [GTGCAC_negctrl_site217] | 9.24 |
| TTCTGTGTCTAAAAATGTACGGGAATATATAAAAGT [XGTACX_site2090] | 9.38 |
| TAATTTCTTATGTAGTGTACAAATAATATATGATAT [XGTACX_site597] | 9.13 |
| TAATCGGTAATATTAACACACACATTTATATATATT [CACACA_site8274] | 9.81 |

| Sequence | gcPBM binding intensity (ln) |
| --- | --- |
| AATATCTGTATATCCACACACATATATATATATATA [CACACA_site4987] | 9.65 |
| ATTATTCATATAACACGTACAAAACGAAAAACAAAT [XGTACX_site3873] | 9.62 |
| GTATTAATAAAAATACGTACTTATTATTTATAATAA [XGTACX_site7672] | 8.84 |
| AAAAGGAGAAATATTGCACACGTGCAAAATGGTATG [CACACA_site4300] | 9.44 |
| AATATCACCACATTGTTACTATAATATATAAAAAAG [XGTACX_negctrl_site384] | 9.22 |
| ATTCATAAAAGTTGTACATGCAATTTTTTTTTTTTT [TGCATGCA_site270] | 9.08 |
| ATTTTGTTATGAAACACACACATATATATATATATA [CACACA_site3650] | 9.53 |
| ATATATGTAACATATTGTACATATATGTATGTATGT [XGTACX_site3281] | 9.33 |
| ATGATAAAATTATGTAGTACATATTTGAATGTAAAT [XGTACX_site688] | 9.24 |
| AAATTATGCATCGAGGTGCGTCTTAAAATATAGTGG | 9.28 |
| ATATAAATTCAAATTACACACATTTATTTTTTTTAC [CACACA_site53] | 9.44 |
| CTACATAATAAAAAAAGTACATTCTAATAAATTGAC [XGTACX_site4504] | 9.35 |
| ACTAATAATTTGTCGGTGCATAAAATTATTTTTATT [GTGCAC_site9840] | 9.31 |
| TATATGCCTATAAGAAGTACTGTGTAATGTAATATA [XGTACX_site8089] | 9.26 |
| TAAACATAAATATGCACACATATACATATATTCATA [CACACA_site2667] | 9.46 |
| AAGAAAAATATATTTATATATATATATATTAAATAT [TGCATGCA_negctrl_site500] | 8.98 |
| AATTTTATACGATAAACATGCAAATAAATAAATAAA [TGCATGCA_site227] | 9.18 |
| AAAGAAAAAAAAAACACACACACACCCATTCAATAT [CACACA_site38] | 10.2 |
| TATAATAATATTTATTGTACAATTAGTTTAATTCAT [XGTACX_site272] | 9.08 |
| TTTATTATATAAACATGTACACAATTTGGTATATTC [XGTACX_site3112] | 9.21 |
| ACAGCCAATACGGAAACACACAAGTTATTTTATCAT [CACACA_site5507] | 9.4 |
| CATTCTTGTTTAAAAAGTACATAAACATATATATAT [XGTACX_site1751] | 9 |
| AAAAAAAATAAAGAGAAAAAAAAAAGAAAATTATAT [GTGCAC_negctrl_site550] | 9.38 |

| Sequence | gcPBM binding intensity (ln) |
| --- | --- |
| TAAATTAATATGTATCGTACAATATATAAAACGATG [XGTACX_site2818] | 9.27 |
| TTCTTCTGTTTTATTACACACCATTTTGCGTATACA [CACACA_site2070] | 9.7 |
| ACATATTATATAACTCGTACTCGTAAAATATGTTGT [XGTACX_site2240] | 9.37 |
| GTCATAAATGTACGCACACATACATAAACATATACA [CACACA_site650] | 9.46 |
| GTTCTTTTATATATTTGTACATATTTATATATATTG [XGTACX_site4078] | 9.72 |
| ATATTATATATATAGGTGCGAGTATTTTATAAATAT [GTGCAC_site9889] | 9.38 |
| TATACACCCGGACACACACACATATATATATATATA [CACACA_site5030] | 9.94 |
| TAAGTATACACATACACACACACACTAATAAAAAAA [CACACA_site8035] | 10.1 |
| TAAAAATATTAATAAACACACAATGAGATATTGAAT [CACACA_site3153] | 9.68 |
| ATATATATATTATATGCACACGTTAAAATTTCATAT [CACACA_site4552] | 9.38 |
| TGATATATTTATATTACACACTTAAACGAAAAAAAA [CACACA_site3021] | 9.29 |
| TATTATAATATTTATACACACATAATTTTGATAAAT [CACACA_site583] | 9.31 |
| AAATATAAAATTTATTGTACATTATATATAATATAT [XGTACX_site1416] | 9.14 |
| AATATAAGTAGTACAGTGCATATAATAATTAGAAGA [GTGCAC_site9485] | 9.61 |
| TTGATTTATATTTAATGTACATTTTTACAGAAAATT [XGTACX_site2747] | 8.93 |
| CCATAAAAAGGATACACACACACACGCACATATATA [CACACA_site6550] | 10.2 |
| GATTAAACACAAAGAAGTACGGACATAAAAAAAAAA [XGTACX_site3686] | 9.56 |
| TCGTGGTTTTAATAAGTGCGCAATTTAAATATTTTT | 9.38 |
| TATTATTATTATTACACACACAATTATATTTACCCC [CACACA_site503] | 9.84 |
| GTATATATATATATATATATATATTTTTATTTATTT [CACACA_negctrl_site589] | 8.96 |
| GAAATGTGGTAATATACACACACGCATATATTTATA [CACACA_site6285] | 9.55 |
| TTTGAACTCTTAAGTGGTACAAATTTGTATTTTCTC [XGTACX_site2322] | 9.13 |
| AATGGAATATATATTTGTACATAAATATTATAATAA [XGTACX_site8524] | 9.23 |

| Sequence | gcPBM binding intensity (ln) |
| --- | --- |
| TATAAATAAAAATATACACACTGTATTATTGTAATA [CACACA_site7721] | 9.34 |
| TTTACTCCTACAACATGTACATAAAATAAATTTTTT [XGTACX_site5010] | 9.11 |
| ACATGTTAACTAAATGTACACACCTATGTTGATGTA [CACACA_site1821] | 9.43 |
| TTATTTACAACTTTTTTTTTTTTATTTTATTTTATT [CACACA_negctrl_site341] | 9.36 |
| TGCATACTAGCCAATTGTACATAATTTTATTTTAAA [XGTACX_site513] | 9.06 |
| ATTATGATTTTATAGAACTGAACATTTACATTAAAT [GTGCAC_negctrl_site192] | 9.09 |
| AAAAGGAACAGACACACACACATATATATATATATA [CACACA_site3587] | 9.85 |
| AAAATAAATCTGAATGGGGTATAATATATCTTTGTT [CACACA_negctrl_site744] | 9.31 |
| ATAACAAAATAAAACACACACACAAATGTACTTATA [CACACA_site8768] | 9.93 |
| ATTTATTATATATACACACATACATATATATATATA [CACACA_site2159] | 9.62 |
| AAAAAATTCTGGTACTGTACACATTTTTTTAAATTT [XGTACX_site6904] | 9.28 |
| TGCTTTTATTTCTTCACACATATGTAAAAAAAAGAA [CACACA_site5906] | 8.94 |
| ATTATATTAGGTAATCAGTTAAATGTTTCCTTTTTA [CACACA_negctrl_site1229] | 9.2 |
| GTTATACTCATATATACACACATATGTAAATATATA [CACACA_site5764] | 9.49 |
| ATATAAATAATGTTGACACACACAATAATCTTATTA [CACACA_site9197] | 9.56 |
| AAAATATGGATTCATGATATTAAATTTAATTTAATG [XGTACX_negctrl_site214] | 8.95 |
| ATACGAAAAAAAAAAAGTACACAAAAATATCTACAT [XGTACX_site2051] | 9.57 |
| TTTATATAATTTTGTGGTACTTATGTGTGTATATTA [XGTACX_site706] | 9.75 |
| CGCGCACCCAGACACACACACACACCGATATATATA [CACACA_site8687] | 10.2 |
| TAAATTATCTTTTTATGTACTTATTTTTATTATTTT [XGTACX_site3158] | 9.55 |
